The source of these data is PubChem BioAssay AID1346428 (National Center for Advancing Translational Sciences (NCATS), 2018).

The campaign covered roughly 48,000 compounds. About 1,200 (2.5%) were called active. Not shown: some 2% with an inconclusive outcome.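 Rule for the calls: active = activation of at least 60% and not above a set upper limit (about 1 call in 100 departs from these limits); inconclusive = activation of 40% to 60%, or above that upper limit; inactive = activation under 40%.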 The list shows a part of the results.

Sequence of UniProt O75388 (O75388 whole entry, looked up, the tested form may be a part): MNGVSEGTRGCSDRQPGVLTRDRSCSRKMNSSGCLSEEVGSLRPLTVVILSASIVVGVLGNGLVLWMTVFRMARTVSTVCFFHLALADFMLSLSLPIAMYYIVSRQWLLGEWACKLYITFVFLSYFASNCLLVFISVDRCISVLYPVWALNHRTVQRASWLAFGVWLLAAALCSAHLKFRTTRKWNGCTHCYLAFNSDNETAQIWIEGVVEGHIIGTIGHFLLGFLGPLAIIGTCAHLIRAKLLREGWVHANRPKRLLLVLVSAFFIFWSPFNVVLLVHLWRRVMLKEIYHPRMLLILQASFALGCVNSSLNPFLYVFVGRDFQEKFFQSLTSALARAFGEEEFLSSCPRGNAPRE

For the assay, the target named is Probable G-protein coupled receptor 32 (Homo sapiens) (UniProt O75388). The assay is described as follows: qHTS for Agonists of Human Resolvin D1 Receptor DRV1. The note with it: CHO-K1 GPR32 beta-arrestin PathHunter luminescence, 90 min; at 76.9 µM; stronger effect = higher value; zero percent set by DMSO-only wells. Summed up:
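PathHunter enzyme-fragment complementation, CHO-K1 GPR32 stable line; 2,500 cells/well, overnight attach; cpd 90 min 37 °C 5% CO2; detection reagent 1 h RT; chemiluminescence. DMSO = EC0.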
`CCCNc1nc2c(c(=O)n(C)c(=O)n2C)n1CC(O)COc1ccccc1` (stereo not drawn): the activation was inactive: 8.13%.

As for `COc1ccc(NC(=O)c2oc3ccccc3c2NC(=O)COc2ccc(F)cc2)c(OC)c1`, the activation is inactive: -3.72%.

As for `O=C(NCc1ccc(F)cc1)C(=O)NCC(c1ccco1)S(=O)(=O)c1cccs1` (stereo not drawn), the activation is inactive: -10.9%.

`O=C(c1ccc2c(c1)N(Cc1ccc(Cl)cc1)C(=O)c1ccccc1S2(=O)=O)N1CCc2ccccc21`: the activation is inactive: -1.61%.

For the compound `CCC(C(=O)Nc1cccc(C#N)c1)n1nc(-c2ccccc2)ccc1=O` (stereo not drawn), the activation is inactive: -9.46%.

`COC(=O)c1ccccc1NC(=O)CSc1nnc2cc(C)c3cc(C)cc(C)c3n12`: the activation was inactive: -19.9%.

In the case of `Cc1ccc(NC(=O)CCCn2nc(C)c3sc4ccccc4c3c2=O)c(Cl)c1`, the activation is inactive: -8.04%.

In the case of `Cc1ccc(-c2nnc(Nc3cccc(Br)c3)c3ccccc23)cc1S(=O)(=O)NCC1CCCO1` (stereo not drawn), the activation was inactive: -10.3%.

`CCN1c2ccccc2-c2nc(SCC(=O)Nc3cc(F)ccc3F)ncc2S1(=O)=O`: the activation is inactive: -0.803%.

Take `O=C(Cn1ccc2cc(S(=O)(=O)N3CCCC3)ccc21)NCc1ccccc1Cl`: the activation is inactive: 4.83%.

Consider `N=S(=O)(O)Cc1noc2ccccc12`, for which the activation was inactive: -4.28%.

Consider `CCOc1ccc(C2C(=O)N(C3CCCCCC3)CC(=O)N2CCc2ccc(Cl)cc2)cc1OC` (stereo not drawn), for which the activation was inactive: -35.1%.

For the compound `Cc1cc(C)c(NC(=O)Nc2csc3c2CCCC3)c(C)c1`, the activation was inactive: -13.7%.

Regarding `COc1ccc(CCn2c(=O)c3cccnc3n(CC(=O)Nc3c(C)cc(C)cc3C)c2=O)cc1OC`, the activation is inactive: 0.862%.

With `CCCc1cc(N2CCN(c3ccc(OC)cc3)CC2)n2cnnc2n1`, the activation was inactive: 17.8%.

Regarding `COc1cc(NC(=O)CCNC(=O)Cn2cnc3ccccc3c2=O)cc(OC)c1OC`, the activation is inactive: -9.67%.

As for `O=C(CCCCCn1c(=O)[nH]c2ccccc2c1=O)NCc1ccc(Cl)cc1`, the activation is inactive: -0.505%.

Consider `CCC(=O)N1CCc2cc(Br)cc(S(=O)(=O)NCc3ccccc3)c21`, for which the activation was inactive: 1.65%.

As to `CSc1ccc(CCNC(=O)C2CCN(c3ncnc4c3nc3n4CCCCC3)CC2)cc1`, the activation is inactive: -9.63%.

`O=C(O)c1cc(=O)c2c(OCC(O)COc3cccc4oc(C(=O)O)cc(=O)c34)cccc2o1`: the activation is inactive: -39.2%.

Consider `Fc1ccc(-n2ncc3c(N4CCN(c5ccccc5F)CC4)ncnc32)cc1`, for which the activation is inactive: 12.1%.

As to `CCN(CC)C(=O)COc1ccc(-c2nnc(Nc3ccc(OC)c(C(=O)NC)c3)c3ccccc23)cc1`, the activation was inactive: 15.9%.

On to `Cc1sc2ncn(CC(=O)N(C)c3cccc(C(F)(F)F)c3)c(=O)c2c1S(=O)(=O)N1CCN(c2ncccn2)CC1`, for which the activation was inactive: -11.9%.

Consider `Cc1cc(=O)oc2c3c(ccc12)OCN(Cc1ccc(Cl)cc1)C3`, for which the activation was inactive: 10.5%.

Consider `CCn1nc(C)c2c(-c3ccccc3)cc(=O)n(C(C)C(=O)NCCc3ccccc3)c21` (stereo not drawn), for which the activation is inactive: -17.1%.

As for `CCc1nn2c(=O)cc(COC(=O)c3ccccc3NC(=O)c3cccs3)nc2s1`, the activation is inactive: -15.7%.

With `O=C(CCn1ccc2cc(S(=O)(=O)N3CCCC3)ccc21)NCc1ccccc1Cl`, the activation was inactive: -5.16%.

In the case of `O=C(NCCc1ccc(Cl)cc1)c1ccc2c(c1)N(Cc1cccc(Cl)c1)C(=O)c1ccccc1S2(=O)=O`, the activation was inactive: -20.9%.

`Fc1ccccc1Nc1ncnc2c1nc1n2CCCCC1`: the activation is inactive: 13.7%.

In the case of `Cc1cccc(CCNC(=O)c2c[nH]c3ccc(S(=O)(=O)Nc4ccccc4F)cc3c2=O)c1`, the activation was inactive: 10.9%.

In the case of `CCC1CCCCN1C(=O)Cn1c(=O)n(CCCCCC(=O)NCc2ccccc2Cl)c(=O)c2sccc21` (stereo not drawn), the activation is inactive: -13.1%.

In the case of `COc1cccc(-c2nnc3sc(CN4CCCCC4)cn23)c1`, the activation is inactive: 3.96%.

On to `COC(=O)c1ccc(NC(=O)CC2C(=O)N(c3cccc(C)c3)C(=O)N2C2CCCC2)cc1` (stereo not drawn), for which the activation is inactive: -24.4%.

With `CC(C)(Oc1ccc(Cl)cc1)C(=O)Nc1nnc2n1CCS2`, the activation was inactive: -58.6%.

As for `Cc1cnc2c(c1SCC(=O)NCc1ccccc1Cl)c(=O)n(C)c(=O)n2C`, the activation was inactive: -2.5%.

`COc1cccc(C(=O)Nc2cccc(OCc3cc(=O)n4cccc(C)c4n3)c2)c1`: the activation was inactive: -14.3%.

As to `Cc1ccc(NC(=O)CCC(=O)N2CCSc3ccccc32)cc1`, the activation is inactive: -16%.

`CCCCNC(=O)CC1N=C2c3ccccc3N=C(SCC(=O)NCc3ccccc3Cl)N2C1=O` (stereo not drawn): the activation was inactive: -11.5%.

With `Cc1ccc(C)c(N2CCN(C(=O)c3nn(C)c4c3CS(=O)(=O)c3ccccc3-4)CC2)c1`, the activation is inactive: -1.72%.

With `CCOc1ccc(NC(=O)Cn2cc(C(=O)c3ccccc3)c(=O)c3cc4c(cc32)OCCO4)cc1`, the activation is inactive: 30.7%.

With `COC(=O)c1ccc(NC(=O)CC2C(=O)N(c3ccc(C)cc3)C(=O)N2Cc2ccc(OC)cc2)cc1` (stereo not drawn), the activation is inactive: -14.9%.

With `Clc1ccc(-c2noc(-c3cccnc3N3CCN(c4ccccc4)CC3)n2)cc1`, the activation was inactive: -9.62%.

Regarding `Cc1ccn2c(Nc3ccccc3C)c(-c3cccnc3)nc2c1`, the activation is inactive: -17.3%.

For `Cn1c(=O)c(=O)n(C)c2cc(S(=O)(=O)Nc3ccc(Cl)c(C(F)(F)F)c3)ccc21`, the activation was inactive: -7.28%.

In the case of `Fc1ccc(Nc2c(-c3ccco3)nc3ccccn23)cc1`, the activation is inactive: 3.39%.

With `CCN(C(=O)CSc1nc2ccccc2n1CC(=O)N1CCCC(C)C1)c1ccccc1` (stereo not drawn), the activation was inactive: -6.72%.

For the compound `CCOc1ccc(CCNC(=O)C2CCN(Cc3nc(-c4ccccc4C)oc3C)CC2)cc1OCC`, the activation was inactive: 0.494%.

Turning to `O=C(CC(NCc1cccnc1)C(=O)O)Nc1ccc(O)cc1` (stereo not drawn), the activation was inactive: 18.4%.

Turning to `CNCCC(Oc1ccccc1C)c1ccccc1` (stereo not drawn), the activation was inactive: -13.2%.

For `Cc1ccc(C2c3[nH]c4ccccc4c3CCN2C(=O)CCc2ccccc2)cc1` (stereo not drawn), the activation is inactive: -30.3%.

Regarding `CCOc1ccc(CNC(=O)Cc2ccc(NC(=O)N3CCCCc4ccccc43)cc2)cc1OC`, the activation was inactive: -20.6%.

On to `Cc1ccc(NC(=O)C2CCC(CNS(=O)(=O)c3ccc4c(c3)C(C)(C)C(=O)N4C)CC2)cc1` (stereo not drawn), for which the activation is inactive: -6.1%.

Turning to `CC(C)(C)c1ccc(C(=O)N2CCN(Cc3cc(=O)n4nc(-c5ccccc5F)sc4n3)CC2)cc1`, the activation was inactive: -10.9%.

For the compound `Cc1cc(=O)oc2cc(OCC(=O)Nc3c(C(C)C)cccc3C(C)C)ccc12`, the activation was inactive: -1.21%.

As for `Clc1ccc(-c2nnn3c2nc(NCc2ccc4c(c2)OCO4)c2ccccc23)cc1`, the activation is inactive: -0.93%.

In the case of `COc1cc(OC)c(NC(=O)Cn2cnc3nc4c(cc3c2=O)CCCC4)cc1Cl`, the activation is inactive: -11.8%.

Regarding `CCOc1ccc(C(NC(=O)c2cc(OC)c(OC)c(OC)c2)c2cc(Cl)c3cccnc3c2O)cc1` (stereo not drawn), the activation is inactive: -16.5%.

On to `Cc1ccc2nc(CN3CCN(S(=O)(=O)c4ccccc4)CC3)oc2c1`, for which the activation was inactive: 14.6%.

Consider `CC(C)Oc1cccc(C(=O)Nc2ccc3oc(-c4ccccc4)nc3c2)c1`, for which the activation is inactive: -8.6%.

Regarding `Cc1ccc(S(=O)(=O)N(CC(=O)Nc2c(C)cccc2C)c2cccc(Cl)c2)cc1`, the activation was inactive: -25.1%.

In the case of `Cc1nc2nc(C)c(CCC(=O)NCCc3ccccc3)c(C)n2n1`, the activation is inactive: -5.55%.

As to `O=C(Cn1cc(S(=O)(=O)Cc2ccccc2Cl)c2ccccc21)Nc1cccc(C(F)(F)F)c1`, the activation was inactive: 5.6%.

As to `CCc1ccc(NC(=O)CSc2nc3ccccc3c(=O)n2CCC(=O)NC2CCCCC2)cc1`, the activation was inactive: -8.95%.

As for `COC(=O)c1cc(C)nc2c1c(=O)nc(SCc1c(C)cc(C)cc1C)n2C1CC1`, the activation is inactive: 2.34%.

For `CCC(=O)N1c2ccc(S(=O)(=O)N3CCCCCC3)cc2CC1C` (stereo not drawn), the activation was inactive: 9.62%.

On to `CCC(Sc1nc2cc3c(cc2c(=O)n1CCCC(=O)NCc1ccc2c(c1)OCO2)OCO3)C(=O)NCCCOC` (stereo not drawn), for which the activation is inactive: -17.1%.

On to `Cc1nc(N=Nc2ccc(S(=O)(=O)O)cc2S(=O)(=O)O)c(COP(=O)(O)O)c(C=O)c1O`, for which the activation was inactive: 1.25%.

For the compound `Cc1ccc(O)c([C@H](CCN(C(C)C)C(C)C)c2ccccc2)c1`, the activation is inactive: -5.53%.

Turning to `COC(=O)c1cc2oc3ccccc3c2n1CC(=O)Nc1ccc(N(C)C)cc1`, the activation was inactive: 2.17%.

In the case of `Cc1ccc(NC(=O)COc2ccc(-c3nn(C)c(=O)c4ccccc34)cc2)c(C)c1`, the activation is inactive: -19.2%.

As to `Nc1c(-c2nc(-c3ccccc3Cl)no2)nnn1-c1ccccc1F`, the activation was inactive: 11.5%.

With `Cn1cc(S(=O)(=O)N2CCCCC2)cc1C(=O)NCc1ccc(Cl)cc1`, the activation is inactive: 2.16%.

As to `CCC(=O)Nc1nnc(S(=O)(=O)N2CCCCCC2)s1`, the activation was inactive: 3.79%.

Regarding `COc1ccc(NC(=O)C(NS(=O)(=O)c2cccc3nsnc23)c2ccccc2)cc1` (stereo not drawn), the activation was inactive: -18.6%.

Regarding `CCOc1cc(-c2nnc(SCC(=O)NCCCOC)nc2-c2ccc(OC)c(OCC)c2)ccc1OC`, the activation was inactive: -11.5%.

As for `CCC(CC)c1nn2cc(-c3ccccc3)nc2s1`, the activation is inactive: 9.96%.

As to `CCCCSc1nnc2c(n1)OC(c1ccc(C)s1)Nc1ccccc1-2` (stereo not drawn), the activation was inactive: -23.3%.

`Cc1ccc(N2CCN(S(=O)(=O)c3cc(Br)cc4c3N(C(=O)C3CC3)CC4)CC2C)cc1` (stereo not drawn): the activation was inactive: -16.8%.

For `CCCN(C(=O)c1cn(CC(C)C)c(=O)c2cc(OC)c(OC)cc12)c1cccc(C)c1`, the activation is inactive: 9.74%.

In the case of `COc1ccc(-c2cn3c(n2)sc2cc(C(=O)N4CCCCC4)ccc23)cc1`, the activation was inactive: 31.7%.

For the compound `CCCCC[C@H](CC(=O)NO)C(=O)N[C@H](C(=O)N1CCC[C@H]1CO)C(C)C`, the activation is inactive: -2.43%.

As for `CCS(=O)(=O)N1CC(=O)N(c2ccc(C)c(C)c2)C(C)(C(=O)NC2CCCCCC2)C1` (stereo not drawn), the activation is inactive: 4.46%.

For `Cc1cc(S(=O)(=O)Nc2ccc3[nH]c(=O)sc3c2)ccc1F`, the activation was inactive: -1.07%.
